The text below walks through data of PMC7819943, “Rice protein-binding microarrays: a tool to detect cis-acting elements near promoter regions in rice”.

The list shows a part of the results.

The assay concerns the target T1, OsWOX13 (Oryza sativa, UniProt Q5QMM3 1-267).
T1 sequence: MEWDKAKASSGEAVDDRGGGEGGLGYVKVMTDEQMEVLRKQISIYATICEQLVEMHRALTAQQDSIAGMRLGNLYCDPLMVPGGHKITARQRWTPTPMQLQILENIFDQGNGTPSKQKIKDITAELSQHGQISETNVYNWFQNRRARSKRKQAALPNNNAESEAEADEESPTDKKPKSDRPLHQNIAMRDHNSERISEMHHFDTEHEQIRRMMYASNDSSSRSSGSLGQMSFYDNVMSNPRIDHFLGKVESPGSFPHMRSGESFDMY
The assay is described as follows: protein-binding microarray (RPBM); PBS, 2% BSA, 51.3 ng/ul salmon testes DNA, 50 uM zinc acetate, 200 nM TF, 25 C, 1 h; high values mean tight binding. As to conditions: protein: recombinant; tags: N-terminal polyhistidine and DsRed monomer fusion (pET32a); label: CyDye5-dUTP incorporated in the synthesized complementary strand; 3' TTTTT single-stranded linker to array surface; dsDNA, one strand shown. A digest of the protocol: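 The binding signal for each feature is its fluorescence intensity in arbitrary units. An Axon 4000B scanner was used to read a custom Agilent array that had been made double-stranded with Cy5-dUTP primer extension, blocked with 2% BSA, incubated at 25 °C for 1 h with 200 nM protein in PBS, 2% BSA, salmon testes DNA and 50 µM zinc acetate, and washed. The protein was an N-terminal polyhistidine–DsRed transcription factor fusion from E. coli BL21-CodonPlus, purified on Ni–NTA.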
For “TAATTAATTGATTAATGACTAAACTTGGCCATCAACCGCTCGGAGTCACCTAGTGCAG”, the binding signal was 64800 fluorescence intensity (a.u.).
Turning to “AAGTGATAGACAGTGAATCGAGGAAGATGGGTTGAGCCCACGGAGTCACCTAGTGCAG”, the binding signal was 23200 fluorescence intensity (a.u.).
As for “CCTTAATTAATACTTCCTTCGGAACATTGTTTTGAGATGGCGGAGTCACCTAGTGCAG”, the binding signal is 48500 fluorescence intensity (a.u.).
Take “GTGATTTGGTGATTGTATGGGGACTACTATTTAACGCACTCGGAGTCACCTAGTGCAG”: the binding signal was 29300 fluorescence intensity (a.u.).
The result for “CGAGTGATTTCCTATCACTCCAGCTGTCCCGCGTGTCCCCCGGAGTCACCTAGTGCAG” reads 13400 fluorescence intensity (a.u.); that for “GTCATTTAATGACATTAGTTACTCCGTATTATCATGGTACCGGAGTCACCTAGTGCAG”, 3550 fluorescence intensity (a.u.); that for “TTTTAAATTGCTCGATTGGATTAGCTTGAAAATGTTTGGACGGAGTCACCTAGTGCAG”, 25600 fluorescence intensity (a.u.).
“AATTAAATAAATTATAATTTATTTTATTGAGATTTGATTTCGGAGTCACCTAGTGCAG”: the binding signal is 41300 fluorescence intensity (a.u.).
The figure for “TTGATGGATAAGTGATTGGATGTGACTACAGAACAGTATTCGGAGTCACCTAGTGCAG” is 49500 fluorescence intensity (a.u.); for “TTTTAATTTCTAATTTTCGTTATCTGTAGACTCTAGGCTCCGGAGTCACCTAGTGCAG” it is 18700 fluorescence intensity (a.u.).
As to “TATATTTAATTTTATATGGATTTTACAAGTTTTAGGTACTCGGAGTCACCTAGTGCAG”, the binding signal is 5410 fluorescence intensity (a.u.).
With “ACTTCAAGCAATTAGATAATTGTGTTGACTCCCAGTGAACCGGAGTCACCTAGTGCAG”, the binding signal is 12300 fluorescence intensity (a.u.).
The result for “TTCAAATTTCGATTTGTAAATTTGTCGCGGTTTTGCGCGGCGGAGTCACCTAGTGCAG” reads 12500 fluorescence intensity (a.u.).
The result for “GGCTTGTGTAATTGTTTATTAATTTCTTCCCACACTGCCCCGGAGTCACCTAGTGCAG” reads 24000 fluorescence intensity (a.u.); that for “TTTTAAATTTGGATGGCTGTTTTGGACCTTCAGGTTCAGGCGGAGTCACCTAGTGCAG”, 3530 fluorescence intensity (a.u.).
The result for “TGAATTTATGATTGGCAGATTGTACAATTGTATTAGCAATCGGAGTCACCTAGTGCAG” reads 40400 fluorescence intensity (a.u.); that for “TTCAGATAAATTGAGGAAATACGATGAGGAAGATCTATGCCGGAGTCACCTAGTGCAG”, 16700 fluorescence intensity (a.u.); that for “TTGTAATTAAATCAGTGCATGGCTAGCCCTACCAACTTCACGGAGTCACCTAGTGCAG”, 22400 fluorescence intensity (a.u.).
Regarding “TAAGTTTTAATTGAAATTTTGTTCACAAATACTCCAAATCCGGAGTCACCTAGTGCAG”, the binding signal was 11900 fluorescence intensity (a.u.).
The result for “ATCCTAATCAATTGGTCTCTAACCCTTCGATATACATCTGCGGAGTCACCTAGTGCAG” reads 15200 fluorescence intensity (a.u.); that for “TGTAATTAGATTGTAAATCGGATGAGTAATTTAAGAGAAACGGAGTCACCTAGTGCAG”, 34600 fluorescence intensity (a.u.).
The figure for “ATCCGAATTAACGAAATGGATTGGAAGAGAAGGAAGTTGGCGGAGTCACCTAGTGCAG” is 16300 fluorescence intensity (a.u.); for “ACTAATTTAAATTTCAAAATGTTACAAATTAGAGATTAGACGGAGTCACCTAGTGCAG” it is 26100 fluorescence intensity (a.u.); for “CTACAGCTAATTAAAACCGTGAAGTCACGATATCCTATAGCGGAGTCACCTAGTGCAG” it is 6940 fluorescence intensity (a.u.).
The result for “TAGGTTAATTTTCGTGTCAGATCAAACTCAGCGCTCCGTTCGGAGTCACCTAGTGCAG” reads 6280 fluorescence intensity (a.u.); that for “ATAGATGAATGATTTAGAAGGCATGACAAATATGATACATCGGAGTCACCTAGTGCAG”, 7050 fluorescence intensity (a.u.); that for “CAATAATCTGACAAATTTCAATCCTGGCATCCATGCATTTCGGAGTCACCTAGTGCAG”, 5970 fluorescence intensity (a.u.).
For “TAAATTAATTATATACTAATGAGTCGCTTAGTTTTCCGTGCGGAGTCACCTAGTGCAG”, the binding signal was 42200 fluorescence intensity (a.u.).
The result for “CATCGAGATTTTAATGACTGTCGGATTATATATGGGTTAACGGAGTCACCTAGTGCAG” reads 6620 fluorescence intensity (a.u.); that for “TGAACAGACAGCAATTACCTTTCGTGTTCTCTTCTAGGAACGGAGTCACCTAGTGCAG”, 5710 fluorescence intensity (a.u.); that for “GTTATTTACTGGAGATTGAGATACCGGCCGGCGGCCGTTGCGGAGTCACCTAGTGCAG”, 3490 fluorescence intensity (a.u.).
As for “GACCAATCATCAGAAGGAGAGAAATTTGCCAGATGCATGCCGGAGTCACCTAGTGCAG”, the binding signal was 14900 fluorescence intensity (a.u.).
The result for “ATTATACTATGATTGTACTGTAATTACATCTGTCAAATTTCGGAGTCACCTAGTGCAG” reads 24500 fluorescence intensity (a.u.).
The result for “TCTGAAGAAAACCAATCAATTGTCCGGCCATACAAACTGCCGGAGTCACCTAGTGCAG” reads 13100 fluorescence intensity (a.u.).
With “CTCCAAATTACTAATTCAGAATATAGAAAGGCAAGCTCTGCGGAGTCACCTAGTGCAG”, the binding signal was 15000 fluorescence intensity (a.u.).
In the case of “ACTGATAGAACCTGTAAAGCCAGTACGAGGCCCACCAGCACGGAGTCACCTAGTGCAG”, the binding signal was 4160 fluorescence intensity (a.u.).
With “ATGACGTAATTAGGCTCAAAGATTCGTCTCGCAATTTACACGGAGTCACCTAGTGCAG”, the binding signal is 10700 fluorescence intensity (a.u.).
The figure for “GTTGATTATTTACGTTGCATTCCTCCAGAACAATTCCTATCGGAGTCACCTAGTGCAG” is 31600 fluorescence intensity (a.u.); for “AGCAGAGAGACAGACAGACAGACAGGCAGACAGAGTGATCCGGAGTCACCTAGTGCAG” it is 3160 fluorescence intensity (a.u.).
The figure for “ATAAACAACCGTGCTAATTAGGTTGAACCAAGGCAAAAGGCGGAGTCACCTAGTGCAG” is 4690 fluorescence intensity (a.u.); for “AATAATAATTTGACGTTGTTTGCATATTATTTAAAATACTCGGAGTCACCTAGTGCAG” it is 8590 fluorescence intensity (a.u.); for “AGAAAATGTAATTAAGAAAATAAGTAAAGTGGATAGGGTACGGAGTCACCTAGTGCAG” it is 7170 fluorescence intensity (a.u.).
